# Laboratory results taken from PubChem BioAssay AID686978 (National Center for Advancing Translational Sciences (NCATS), 2013).
# Screen size: about 420,000 compounds; about 64,000 (15%) were called active. The shares of active, inactive and inconclusive entries below differ from those in the screen. Calls come from the whole dose curve; as a rule, active = well fitted inhibition curve with a large enough effect; inconclusive = small, poorly fitted or top-dose-only effect; inactive = flat fitted curve, though single readings scatter. No potency is given beside an inconclusive call; the fits are too rough.
# Assay: qHTS for Inhibitors of human tyrosyl-DNA phosphodiesterase 1 (TDP1): qHTS in cells in absence of CPT; note: nearly all actives have a fitted effect of over 55% in size
# Settings: DT40 Tdp1-/- hTDP1 cells, no CPT, ATP luminescence, 48 h; activity change, negative = growth inhibition: at 46.2 µM (top of the series) unless noted
# Method in brief: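 No-CPT arm: Tdp1-/-;hTDP1 DT40 cells (400/well) plus compounds, incubated ≥48 hr at 37 °C. Readout CellTiter-Glo luminescence.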
# % is set by controls: 0 for no effect and ±100 for the full control effect; potency is the fitted concentration of half-maximal effect; tags give direction and shape of the fitted curve.
Structure (SMILES),Potency,"activity change, negative = growth inhibition"
CCN(CC)c1ccc(NC(=O)c2ccc(=O)[nH]c2)cc1S(=O)(=O)Nc1ccccc1OC,"inconclusive [inhibitor, single point]",–
COc1ccc(-c2nc3ccc(Cl)cn3c2Cc2cccc(F)c2)cc1OC,active: 20.6 µM,–
COc1ccc(CNC(=O)CCCn2c(SCC#N)nc3cc4c(cc3c2=O)OCO4)cc1,inactive,–
Cc1ccccc1CC(=O)Nc1cccnc1,inactive,–
COc1ccc(C(=O)c2cn(CC(=O)Nc3ccc4c(c3)OCO4)c3ccc(OC)cc3c2=O)cc1,"inconclusive [inhibitor, single point]",–
CC(C)c1ccc(C2C3=C(COC3=O)Nc3cc4c(cc32)OCO4)cc1 (stereo unspecified),active: 0.92 µM,–
COCCn1c(SCC(=O)Nc2cccnc2Cl)nc2ccccc21,inactive,–
COC(=O)[C@@]1(Cc2ccc(OC)cc2)[C@H]2c3cc(C(=O)N4CCCC4)n(CCO)c3C[C@H]2CN1C(=O)c1ccccc1,inactive,–
CCOc1cc(/C=N/NC(=O)CSc2cccc3cccnc23)ccc1O,"inconclusive [inhibitor, single point]",–
CCOc1ccc(-c2nc(CSCC(=O)NC3CCN(Cc4ccccc4)CC3)c(C)o2)cc1,"inconclusive [inhibitor, single point]",–
CCCN1Cc2cccc(C(=O)N3CCN(c4ccc(OC)cc4)CC3)c2C1=O,"inconclusive [inhibitor, partial curve, poor fit]",–
CCC(=O)NNc1nc2c(C)c(C)ccc2s1,inactive,–
O=C(NCCc1ccc(Cl)cc1)c1cccn1-c1nnc(N2CCCC2)s1,"inconclusive [inhibitor, single point]",–
CC[C@]1(C(=O)OC)[C@H]2C(=O)N(Cc3ccccc3)C(=O)[C@H]2[C@H]2CN=C(SCC3CC3)N21,"inconclusive [inhibitor, single point]",–
Cc1cccc(C(=O)NCc2nc(-c3cccc(NC(=O)c4ccoc4C)c3)oc2C)n1,active: 13 µM,–
CCCCOCCCNC(=O)C[C@@H]1C[C@@]2(C(=O)OCC)CCCC=C2N(CCC2=CCCCC2)C1=O,active: 18.4 µM,–
O=c1c(/C=C(\O)c2ccccc2)nc2ccccc2n1-c1ccccc1,"inconclusive [inhibitor, single point]",–
COc1cc(C)c(NC(=O)COc2ccc3c(c2)CCC3)cc1OC,"inconclusive [inhibitor, single point]",–
COc1ccccc1C(=O)N/C(=C\c1cn(C)c2ccccc12)C(=O)NCCCN1CCOCC1,"inconclusive [inhibitor, single point]",–
CCOC(=O)c1cc(C)sc1NC(=O)CN1CCN(C(=O)c2ccco2)CC1,"inconclusive [inhibitor, single point]",–
COc1ccc(OC)c(C2CC(=O)Nc3cc(OC)c(OC)c(OC)c32)c1 (stereo unspecified),"inconclusive [inhibitor, single point]",–
O=C(Nc1cccc(-n2cnnn2)c1)c1cccs1,"inconclusive [inhibitor, single point]",–

Structure (SMILES),Potency,"activity change, negative = growth inhibition"
Cc1ccc(NC(=S)N2CCCN(Cc3ccc(F)cc3)C2)c(C)c1,active: 20.6 µM,–
CCCn1cc(S(=O)(=O)c2ccccc2)c(=O)c2cc(F)c(N3CCCC3)cc21,"inconclusive [inhibitor, partial curve, poor fit]",–
COc1ccc(S(N)(=O)=O)cc1C(=O)NCCCN1CCN(c2cccc(Cl)c2)CC1,"inconclusive [inhibitor, single point]",–
C=CCN(C(=O)c1ccccn1)C(C(=O)NCc1ccccc1)c1ccccc1F (stereo unspecified),"inconclusive [inhibitor, partial curve]",–
Cc1ccccc1C1c2[nH]c3ccccc3c2CCN1Cc1cccn1-c1ncccn1 (stereo unspecified),"inconclusive [inhibitor, single point]",–
COCc1c(C(=O)OCC(=O)N2c3ccccc3NC(=O)C2(C)C)oc2ccccc12,"inconclusive [inhibitor, single point]",–
Cc1cc(Cl)cc(Cl)c1OCCOc1cccc2cccnc12,"inconclusive [inhibitor, single point]",–
CCOc1ccc(NC(=O)CCN2C(=O)CSc3ccccc32)cc1,"inconclusive [inhibitor, single point]",–
Cc1cccc(NC(=O)CSc2nc3c([nH]c4ccccc43)c(=O)n2-c2ccc(F)cc2)c1C,"inconclusive [inhibitor, partial curve]",–
COc1ccc(-n2nc(C(=O)N3CCN(c4cccc(C)c4)C(C)C3)c3c4ccccc4n(C)c3c2=O)cc1 (stereo unspecified),"inconclusive [inhibitor, partial curve]",–
COc1ccccc1NC(=O)N1CCCC1C(=O)NC12CC3CC(CC(C3)C1)C2 (stereo unspecified),"inconclusive [inhibitor, single point]",–
CC(=O)c1ccc(N2CCN(c3ccc(C(F)(F)F)cn3)CC2)cc1,"inconclusive [inhibitor, partial curve, poor fit]",–
Cc1cccc(OCC(=O)Nc2ccc3c(c2)N(C)C(=O)c2ccccc2S3)c1,active: 10.3 µM,–
N#Cc1ccc(NC(=O)c2cc(-c3cccs3)on2)cc1,"inconclusive [inhibitor, partial curve, poor fit]",–
O=C(O)c1ccc(-n2c(/C=C/c3cccc([N+](=O)[O-])c3)nc3ccccc3c2=O)cc1,"inconclusive [inhibitor, single point]",–
Oc1[nH]c2ccc(Br)cc2c1N=Nc1ccc(F)cc1,inactive,–
O=C(Cc1cccs1)N1CCCC(c2nc(-c3ccc(S(=O)(=O)N4CCCC4)cc3)no2)C1 (stereo unspecified),"inconclusive [inhibitor, single point]",–
CCCn1ccc2c(OCC(=O)Nc3ccc(F)cc3F)cccc2c1=O,"inconclusive [inhibitor, single point]",–
COc1cccc(C(=O)NNC(=O)C(=O)Nc2cccc(Cl)c2C)c1,"inconclusive [inhibitor, single point]",–
O=C(O)c1c(C(=O)O)c(-c2ccc(Br)cc2)n2c1CSC2,inactive,–
NC(=O)C1=C[C@H](c2ccc3c(c2)OCO3)C[C@H](OCc2ccc(CO)cc2)O1,"inconclusive [inhibitor, single point]",–
COCCCC1CCN(Cc2nc(-c3ccccc3)no2)CC1,"inconclusive [inhibitor, single point]",–

Structure (SMILES),Potency,"activity change, negative = growth inhibition"
CS(=O)(=O)N(CCc1ccccc1)CC(=O)NCc1ccc2c(c1)OCO2,–,inconclusive: -35% [inhibitor]
COc1cc2c3c(c1OC)C1(C=CC(=NO)C=C1)CC3N(C(C)=O)CC2 (stereo unspecified),inactive,–
Cc1ccc(C(=O)N/C(=C\c2cn(S(=O)(=O)N(C)C)c3ccccc23)C(=O)NCCCn2ccnc2)cc1,"inconclusive [inhibitor, single point]",–
COc1ccc(NC(=O)c2ccco2)cc1NC(=O)COc1ccccc1Cl,"inconclusive [inhibitor, full curve]",–
COc1cccc(N(CC(=O)NCc2ccccc2)C(=O)CCC(=O)Nc2nccs2)c1,"inconclusive [inhibitor, partial curve]",–
COC(=O)c1ccccc1S(=O)(=O)NNC(=O)C1COc2ccccc2O1 (stereo unspecified),inactive,–
O=C(C1CCCN(S(=O)(=O)c2cccnc2)C1)N1CCN(c2ccccn2)CC1 (stereo unspecified),"inconclusive [inhibitor, single point]",–
CCCCC(=O)OCc1c(-c2cccc(OC)c2)ncc2ccccc12,"inconclusive [inhibitor, partial curve]",–
C=C1C2CC[C@@]3(C)C(c4ccoc4)OC(=O)C[C@@]13OC1CC(OC(C)=O)C(C)(C)C(CC(=O)OC)[C@@]12C (stereo partly specified),active: 11.6 µM,–
O=C(Nc1ccc(Cl)cc1)C1CCN(S(=O)(=O)c2ccc(Br)s2)CC1,active: 23.1 µM,–
CCC1Oc2ccccc2N(CC(=O)NCCCN2CCC(C)CC2)C1=O (stereo unspecified),"inconclusive [inhibitor, single point]",–
Cc1ccc(-c2nnc(SCC(=O)N/N=C/c3c(C)nn(-c4ccccc4)c3C)n2-c2ccc(C)cc2)cc1,"inconclusive [inhibitor, single point]",–
O=C(COC(=O)Cc1c[nH]c2ccccc12)Nc1ccc(Cl)cc1,inactive,–
CC(=O)OC/C=C(\C)CCC=C(C)C,inactive,–
COC(=O)c1nnn(-c2nonc2N)c1CSc1ccc(Cl)cc1,"inconclusive [inhibitor, single point]",–
CC(C)CN(C(=O)CCNC(=O)c1ccc(Cl)cc1)C1CCS(=O)(=O)C1 (stereo unspecified),–,inconclusive: -31.6% [inhibitor]
CC(Sc1ccccn1)C(=O)Nc1ccc2c(c1)OCCO2 (stereo unspecified),inactive,–
Cc1ccc(-n2ncc(C(=O)NCCCN3CCc4ccccc4C3)c2C2CCN(C(=O)OC(C)(C)C)CC2)cc1C,"inconclusive [inhibitor, single point]",–
NCC1CC2c3ccccc3C1c1ccccc12 (stereo unspecified),"inconclusive [inhibitor, partial curve]",–
CC(/C=C/c1ccco1)=N/NC(=O)Cc1cccs1,active: 3.98 µM,–
CCOC(=O)c1[nH]ncc1CN1CCCC(C(=O)c2ccc(C(C)(C)C)cc2)C1 (stereo unspecified),"inconclusive [inhibitor, single point]",–
O=C(CNC(=O)c1ccc(-c2ccccc2)cc1)OCc1c(F)cccc1Cl,inactive,–
